Some of the results follow. At the low end of the ranking the order means little.

For the experiment, the system named is T1, GST-NbGlk1(82-244).
T1 sequence: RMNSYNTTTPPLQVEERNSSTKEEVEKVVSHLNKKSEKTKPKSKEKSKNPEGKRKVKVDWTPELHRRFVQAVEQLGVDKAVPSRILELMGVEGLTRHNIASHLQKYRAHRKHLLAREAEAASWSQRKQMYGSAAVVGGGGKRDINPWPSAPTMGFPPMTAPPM
The experiment in a line: protein-binding microarray.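 Also: rank-based score ranging −0.5 to +0.5 with E above 0.45 taken as significant binding.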 As to conditions: NbGlk1 is a Golden2-like transcription factor of Nicotiana benthamiana; high values mean tight binding; most listed sequences are background and not binding sites; double strand, one strand shown.
ATAACCTC returned a binding signal of 0.000455 E-score.
The sequence AGTCGTAG yielded a binding signal of -0.239 E-score.
As to ATGGCACA, the binding signal was -0.0513 E-score.
For ACAAGTCT the value was -0.151 E-score; for ATAAAGAG, 0.076 E-score.
In turn, AAACACGG gave a binding signal of -0.146 E-score.
Regarding CAGAGAGG, the binding signal was -0.184 E-score.
In the case of CAATGCCG, the binding signal was -0.201 E-score.
On to CACTGCTG, for which the binding signal is -0.14 E-score.
Sequence ACCCTCTC registered a binding signal of -0.18 E-score.
Turning to ATAATGTC, the binding signal amounted to 0.174 E-score.
Sequence AGAGCCCG displayed a binding signal of -0.2 E-score.
Take AGTAGCTA: the binding signal is -0.0883 E-score.
For AGATCTAT the value was 0.337 E-score.
As to ATTAGGGC, the binding signal was -0.102 E-score.
The sequence ATAGATCA had a binding signal of 0.0439 E-score.
ATGTTCAA yielded a binding signal of 0.00791 E-score.
On to ACGCATTG, for which the binding signal was -0.0505 E-score.
For ACATCCAT the value was 0.022 E-score; for ATGTATAA, 0.174 E-score.
Next, ATGTGGCC: -0.157 E-score; ACACTACC: -0.0835 E-score.
In turn, ACGAGCCC gave a binding signal of -0.249 E-score.
ATATCACC returned a binding signal of 0.277 E-score.
ATTCGCAC showed a binding signal of 0.297 E-score.
As to ATCGATGG, the binding signal amounted to 0.0277 E-score.
In the case of AAAGCTAA, the binding signal is -0.102 E-score.
In turn, AGAAAAAA displayed a binding signal of 0.0258 E-score.
CACAGATA gave a binding signal of 0.28 E-score.
Take CACGGCCA: the binding signal was -0.244 E-score.
With ACAGGATA, the binding signal came out at 0.261 E-score.
Take ATCTCCTG: the binding signal turned out to be 0.312 E-score.
For the sequence ATGTTAGC, the binding signal was -0.015 E-score.
ATTATTTA registered a binding signal of 0.148 E-score.
With ACGTCGGA, the binding signal was 0.0767 E-score.
ATTGATCC had a binding signal of -0.0281 E-score.
Sequence ATACAAGG had a binding signal of -0.0173 E-score.
In the case of AAGGCAGT, the binding signal was determined as 0.0617 E-score.
In turn, AGGCACAT returned a binding signal of -0.118 E-score.
For AGTGTGAT the value was 0.168 E-score.
Consider AAACAGAC, for which the binding signal was -0.105 E-score.
As to AGGGATCC, the binding signal stood at 0.103 E-score.
For the sequence ATGCTCCA, the binding signal is -0.0539 E-score.
ATTTGTGC came in with a binding signal of 0.0523 E-score.
ATACATGC yielded a binding signal of 0.0881 E-score.
As to ACGGTGCG, the binding signal was -0.195 E-score.
Regarding AACCGAAC, the binding signal is -0.135 E-score.
Regarding CAACTGCC, the binding signal was -0.155 E-score.
In turn, ACACGTCA returned a binding signal of -0.13 E-score.
In turn, AGCAACAC had a binding signal of -0.121 E-score.
For AGGCAAGC, the binding signal is -0.358 E-score.
The sequence AGGTAAGG gave a binding signal of -0.0855 E-score.
As for ATTCTAAA, the binding signal was found to be 0.221 E-score.
Next, AGTCGCAC: -0.127 E-score.
Sequence ATTGTCTA yielded a binding signal of 0.157 E-score.
AGACGCAC displayed a binding signal of -0.161 E-score.
In the case of ACATTGGT, the binding signal is -0.0909 E-score.
Sequence AGACTTAT displayed a binding signal of -0.0915 E-score.
AATAATGA yielded a binding signal of 0.172 E-score.
On to ATAAAATC, for which the binding signal stood at 0.409 E-score.
Sequence ACTCATTA returned a binding signal of 0.118 E-score.
Take CACCGAAG: the binding signal is -0.0468 E-score.
CAATGCTA yielded a binding signal of -0.0546 E-score.
For AAGTGTAC, the binding signal is -0.161 E-score.
ATGGGGGG returned a binding signal of -0.312 E-score.
Sequence AGCTCGAC had a binding signal of -0.159 E-score.
For ACCTACGA the value was 0.03 E-score; for ATTGACAA, 0.182 E-score.
CAAGTGAG: the binding signal stood at 0.0179 E-score.
The sequence ACGAGGGG showed a binding signal of -0.22 E-score.
In turn, ATATGAAT had a binding signal of 0.209 E-score.
Regarding AAGGTTTG, the binding signal was -0.124 E-score.
Next, ACGTGTTA: -0.034 E-score.
The sequence ACTTTAAT returned a binding signal of 0.0735 E-score.
For CAAGGAGC the value was -0.263 E-score; for AATGCGCC, -0.12 E-score.
CACAGCTC gave a binding signal of -0.236 E-score.
Next, AGCTGATA: 0.154 E-score.
Next, AAGTGGAA: 0.0389 E-score.
Sequence ACCAGCTG gave a binding signal of -0.204 E-score.
As for ATGATCGG, the binding signal was -0.0584 E-score.
For ATCCACGC the value was 0.276 E-score; for CACAGAAC, -0.0851 E-score.
Consider ATAGCAAT, for which the binding signal amounted to 0.321 E-score.
Next, ACCCCATG: -0.147 E-score.
For the sequence ATAGCGTA, the binding signal turned out to be 0.266 E-score.
As to CAACCCTA, the binding signal was -0.107 E-score.
Regarding ACTACACT, the binding signal was determined as 0.0157 E-score.
The sequence AATTTGGG showed a binding signal of 0.141 E-score.
Turning to ACTCGGCA, the binding signal was -0.178 E-score.
Consider AATTCATG, for which the binding signal was 0.0557 E-score.
For the sequence AGACTCCT, the binding signal was -0.287 E-score.
Next, ACTGACAT: -0.0224 E-score; AATCGCTA: 0.224 E-score.
In the case of AAAATGTA, the binding signal was -0.0355 E-score.
For ACGAATCG the value was 0.283 E-score; for AAGCTTGT, -0.113 E-score.
In turn, AGGGATAA had a binding signal of 0.0121 E-score.
In the case of ACACAAAC, the binding signal was -0.0227 E-score.
In turn, AACATCGA came in with a binding signal of 0.127 E-score.
Consider AAGTCTCC, for which the binding signal was -0.353 E-score.
Regarding ATATTAAT, the binding signal stood at 0.279 E-score.
The sequence CACAAGAC gave a binding signal of -0.14 E-score.
Next, ACATACTC: -0.148 E-score.
With AGGCCGTC, the binding signal is -0.238 E-score.
AGGACACA showed a binding signal of -0.166 E-score.
For the sequence AGCCAGAT, the binding signal came out at 0.135 E-score.
For AGAGCAAC the value was -0.179 E-score; for AAGTGCTA, -0.0981 E-score.
For CAAGAAAG the value was -0.0952 E-score.
Regarding AGAGCAAG, the binding signal was -0.0846 E-score.
For CACTGGCG, the binding signal is -0.173 E-score.
In turn, ATTCGGCC yielded a binding signal of 0.0107 E-score.
With ACCATGGG, the binding signal was -0.263 E-score.
Take ACCCTGGC: the binding signal was -0.126 E-score.
As to CAATCACA, the binding signal was determined as 0.205 E-score.
For AATGGGCT, the binding signal was -0.0624 E-score.
For AACTCGCG the value was -0.0644 E-score; for AATAGGGA, 0.0727 E-score; for AGACGTCG, -0.0485 E-score.
Take AGCTCAGG: the binding signal is -0.172 E-score.
In the case of ATATCCTA, the binding signal worked out at 0.416 E-score.
For AGATAGAC the value was -0.205 E-score; for ACGCGCGC, 0.00708 E-score.
Regarding ACCCATGA, the binding signal was -0.14 E-score.
As to ACCCTAAA, the binding signal was -0.0544 E-score.
Sequence CACCCTGA came in with a binding signal of -0.145 E-score.
In turn, ATAATTTG came in with a binding signal of 0.1 E-score.
In the case of ACTGTGTC, the binding signal was -0.194 E-score.
For the sequence AAGCGGAA, the binding signal was -0.0835 E-score.
AATGGACG yielded a binding signal of -0.181 E-score.
In turn, AGAGAGTG registered a binding signal of -0.113 E-score.
For ATTGACGC the value was -0.111 E-score; for CACAGGGG, -0.182 E-score; for AGGTGACT, -0.184 E-score.
The sequence ATTGCCCC gave a binding signal of 0.205 E-score.
On to ACCTTTCA, for which the binding signal was -0.0237 E-score.
For ATGCAGGG the value was -0.0605 E-score; for AATCATCT, 0.205 E-score.
ACGAGACC yielded a binding signal of -0.146 E-score.
ACCATCCC came in with a binding signal of -0.0883 E-score.
Consider ACCAGTCC, for which the binding signal is -0.216 E-score.
Next, ACACGTAC: -0.0654 E-score; AAGTCGGT: -0.138 E-score.
Sequence CAGCGGTA showed a binding signal of -0.0864 E-score.
Sequence ACCCGTGA registered a binding signal of -0.162 E-score.
With ATGTGTCA, the binding signal is 0.0296 E-score.
With ATCGGTTC, the binding signal was 0.0759 E-score.
Sequence ATTATCTC gave a binding signal of 0.111 E-score.
ACACGACG: the binding signal was -0.176 E-score.
For AGGTGAGA, the binding signal was -0.0917 E-score.
Regarding ATTGGTCG, the binding signal turned out to be 0.0891 E-score.
CACCGTTC had a binding signal of -0.121 E-score.
As for ACGATTTC, the binding signal is 0.411 E-score.
The sequence AATTTACT showed a binding signal of 0.126 E-score.
For CAATTCCG the value was 0.0442 E-score.
Turning to ACCACTAG, the binding signal was -0.153 E-score.
ACTGGCGA: the binding signal is 0.0256 E-score.
For AGTAATTA, the binding signal is 0.221 E-score.
Sequence AAAGGAGA gave a binding signal of -0.11 E-score.
The sequence ATTAACGG displayed a binding signal of -0.0595 E-score.
As to CACTGCGG, the binding signal was -0.134 E-score.
In turn, ACCACTCC came in with a binding signal of -0.173 E-score.
Sequence ATAGAAAG showed a binding signal of 0.00555 E-score.
Turning to AGCAGATC, the binding signal was 0.328 E-score.
On to AGGAAGAA, for which the binding signal is -0.0899 E-score.
In turn, ATTAACGC came in with a binding signal of -0.115 E-score.
For AAAGCGGC, the binding signal was -0.224 E-score.
For AGTATGAC, the binding signal is -0.0147 E-score.
Next, ACCTCGAT: 0.123 E-score.
Turning to AGTGTAAA, the binding signal was found to be 0.0865 E-score.
Sequence AGCCCATA yielded a binding signal of 0.0017 E-score.

These data come from article PMC5836133.
